This is an account of results in ChEMBL document CHEMBL1201862, “PubChem BioAssay data set” (2004).

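Assay format: 96-well plates, 48-hour exposure. Here, GI50 denotes the concentration required for 50% inhibition of growth.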 The source made the active and inactive calls. No stated cut-off is given here; in the data, active = GI50 up to about 1.1 µM and inactive = higher. Bounds are passed on as bounds.

The subject of the test is NCI-H322M. The test is described as follows: inhibition of tumour cell growth, NCI panel, 48 h.
As to `O=C1c2ccccc2-c2nnc(-c3ccc(Cl)cc3)cc21`, the GI50 was inactive: > 10 µM.
The value for `O=C(Nc1cccc2ccccc12)c1ccccc1` was inactive: > 100 µM.
Under `O=[N+]([O-])c1ccc(S(=O)(=O)Cc2ccccc2)c2nonc12` stands inactive: 31.6 µM; under `CN(C)Cc1cc(O)c(O)c(CN(C)C)c1`, inactive: 26.4 µM; under `CC(CCC(=O)O)(c1cc(Br)c(O)c(Br)c1)c1cc(Br)c(O)c(Br)c1`, inactive: 36.6 µM.
With `CCc1nc2cc3cccnc3c(Cl)c2[nH]c1=O`, the GI50 was inactive: > 100 µM.
Under `C[N+]1(C)CCC(C#N)(c2ccccc2)CC1` stands inactive: > 100 µM; under `COc1ccc(/C=C2\C(=O)N(NC(C)=O)c3ccccc32)cc1`, inactive: 41.3 µM; under `CN(C)c1ccc(/C=C(\NC(=O)c2ccccc2)C(=O)Nc2cccc(C(=O)NCCCO)c2)cc1`, inactive: > 100 µM.
Under `Cc1ccc2oc3c(ccc(=O)n3C)c(=O)c2c1` stands inactive: > 100 µM; under `Cc1ccc(-n2c(O)c(C#N)c3[nH]nc(N)c3c2=O)cc1`, inactive: > 100 µM; under `CCN1C(=O)C(=C/C=C/C=C2/N(C)c3ccccc3C2(C)C)C(=O)N(CC)C1=S`, inactive: > 100 µM.
Consider `CCOC(=O)C(NC(=O)c1ccccc1)(Nc1ccc(S(=O)(=O)Nc2cc(C)nc(C)n2)cc1)C(F)(F)F` (centres undefined), for which the GI50 was inactive: > 100 µM.
Consider `CC1(C)C2CCC3(OCCO3)C1C1OC12` (centres undefined), for which the GI50 is inactive: > 100 µM.
Under `O=C(Nc1ccc(C2=NCCN2)cc1)c1cncc(C(=O)Nc2ccc(C3=NCCN3)cc2)c1` stands inactive: > 100 µM.
Under `O=C1N2CCN=C2c2ccccc2C1(O)c1ccccc1` (centres undefined) stands inactive: > 100 µM; under `O=C1N(C2CCCCC2)CC12CCCCC2`, inactive: > 100 µM.
Under `CC(C(=O)COCc1ccccc1)P1(=O)OC(C)(C)CN1C(C)(C)C` (centres undefined) stands inactive: > 100 µM; under `CC1=C2C=CC(=O)C[C@@]2(C)CCC1`, inactive: > 100 µM; under `O=C(CC1=NCCN1)c1ccccc1`, inactive: > 750 µM.
For `CSc1ccc(/C=C2\N=C(c3ccccc3)N(c3nc4cc(Cl)c(F)cc4s3)C2=O)cc1`, the GI50 was inactive: > 100 µM.
The value for `O=C(Nc1sccc1S(=O)(=O)c1ccccc1)c1ccccc1` was inactive: > 100 µM; that for `CC1OC(n2cc(I)c(=O)[nH]c2=O)C=CC1=O` (centres undefined) was inactive: 18.5 µM.
On to `NC(=O)c1csc(C2CCC(CO)O2)n1` (centres undefined), for which the GI50 was inactive: > 100 µM.
Under `COc1ccc(N2C(=O)C3c4[nH]c5ccccc5c4C4CCC(c5ccccc5)CC4C3C2=O)cc1` (centres undefined) stands inactive: > 62.7 µM; under `O=C1CCCCCCCCCCC1CN1CCCCC1` (centres undefined), inactive: > 100 µM.
The value for `C=C1CC(C)(COc2ccc3c(C)cc(=O)oc3c2)OC1=O` (centres undefined) was inactive: 10.2 µM; that for `Cn1c(=O)c2c(nc3sc4c(n32)C(=O)c2c(O)ccc(O)c2C4=O)n(C)c1=O` was inactive: 23 µM; that for `CSc1cc(Cl)c(C)cc1S(=O)(=O)NC(=O)NNc1ccc(F)c(Cl)c1` was inactive: > 100 µM.
Under `O=C(NC(Cc1ccccc1)C(=O)CCl)OCc1ccccc1` (centres undefined) stands inactive: 17.6 µM; under `Cc1c(C)c2ccc(OC(C)C(=O)O)cc2oc1=O` (centres undefined), inactive: > 100 µM.
Take `CC(=O)OCOC(=O)CN(CC(=O)OCOC(C)=O)Cc1cc2c(cc1OC(C)=O)Oc1cc(OC(C)=O)c(CN(CC(=O)OCOC(C)=O)CC(=O)OCOC(C)=O)cc1C21OC(=O)c2ccccc21`: the GI50 was inactive: 1.8 µM.
Under `c1ccc(C2=NN(c3nc4ccccc4s3)C3(CCCCC3)N2)nc1` stands inactive: 57.1 µM; under `CC(=O)OC1CC[C@@]2(C)C(=CC[C@@H]3[C@@H]2CC[C@]2(C)C(OC(C)=O)[C@H](n4ccnc4)C[C@@H]32)C1` (some centres undefined), inactive: > 100 µM.
Under `COc1ccc(NC2CC(C)N(C(=O)c3ccccc3)O2)cc1` (centres undefined) stands inactive: > 10 µM.
The value for `COC(=O)c1c(O)ccc2c1c1c(n2Cc2cccc(C)c2)C(=O)c2ccccc2C1=O` was inactive: 7.89 µM.
Turning to `Cc1ccc(S(=O)(=O)NC(=O)NC(Cc2ccccc2)C(=O)O)cc1` (centres undefined), the GI50 is inactive: > 100 µM.
Under `O=C1CSC(c2ccccc2)N1c1ccc(-c2ccc(-n3c(-c4ccccc4)nc4ccccc4c3=O)cc2)cc1` (centres undefined) stands inactive: > 100 µM; under `OC(CCN1CCN(CCOC(c2ccc(F)cc2)c2ccc(F)cc2)CC1)c1ccc(Br)cc1` (centres undefined), inactive: 11 µM; under `Nc1nc2c3nc(Nc4ccccc4)sc3nc(=S)n2c2sc(Nc3ccccc3)nc12`, inactive: 40.7 µM.
The value for `O=C(CN1CCOCC1)c1ccc2c(c1)oc(=O)n2CCN1CCCCC1` was inactive: > 100 µM.
For `CS(=O)(=O)NNS(=O)(=O)c1cccc([N+](=O)[O-])c1`, the GI50 is inactive: > 100 µM.
Take `CC1(C)[N+]([O-])=[N+]([O-])C1(C)O` (centres undefined): the GI50 was inactive: > 100 µM.
The value for `COC(=O)C1=C(C(=O)OC)C(N(C)C)C(C(=O)OC)=C(C(=O)OC)S1` was inactive: > 100 µM.
Under `CO[C@@]12C[C@@H](CNC(=O)c3cc(Br)c[nH]3)O[C@@H]1NC(=O)N2` stands inactive: > 100 µM.
For the compound `CC(=O)OCc1cc(=O)n(C)c2c3c4c(cc12)c(C)cc(=O)n4CO3`, the GI50 is inactive: 1.18 µM.
`CCOC(=O)c1cc(NC(=O)c2ccccc2)c(=O)n2c(cc3c(Cl)cccc32)c1O`: the GI50 is inactive: > 100 µM.
Under `COc1cc(/C=C(\C)[N+](=O)[O-])cc(OC)c1` stands inactive: 17.7 µM.
The value for `O=C(N1CCOCC1)C1(c2ccccc2)CCNCC1` was inactive: > 100 µM.
The value for `O=C1OC(C2Cc3ccccc3C2=O)c2ccccc21` (centres undefined) was inactive: > 100 µM; that for `COc1cc(/C=C2/C[C@H]3[C@@H]4CC=C5C[C@@H](O)CC[C@]5(C)[C@H]4CC[C@]3(C)NC2=O)cc(OC)c1OC` was inactive: 12.8 µM; that for `CNn1c(-c2ccccc2)n[nH]c1=O` was inactive: > 100 µM.
Take `Cc1ccc(S(=O)(=O)n2cc(-c3cnc(N)c(Br)n3)c3ccccc32)cc1`: the GI50 is inactive: 3.48 µM.
For `Cc1ccc(S(=O)(=O)Oc2cc(-c3ccccc3)nc3ccccc23)cc1`, the GI50 is inactive: 3.57 µM.
Under `COC(=O)/C=C\C(C#N)(C#N)/N=C/c1cccs1` stands inactive: 18.4 µM; under `O=C(O)C(Br)C(Br)c1ccccc1[N+](=O)[O-]` (centres undefined), inactive: > 100 µM.
The value for `CC1OC(n2cc(F)c(=O)[nH]c2=O)C(O[Si](C)(C)C(C)(C)C)C1O[Si](C)(C)C(C)(C)C` (centres undefined) was inactive: > 10 µM; that for `CC(C)=CC1CC(=[N+]=[N-])C(=O)C1(C)C` (centres undefined) was inactive: > 100 µM.
For the compound `Cc1c(/C=N/NC(=S)Nc2ccccc2)c(=O)n(-c2ccccc2)n1C`, the GI50 is inactive: > 100 µM.
The value for `O=C(CC1C(=O)c2ccccc2C1=C1C(=O)c2ccccc2C1=O)c1ccccc1` (centres undefined) was inactive: > 100 µM.
With `CN1CCc2c(sc3nc(S)nc(S)c23)C1`, the GI50 was inactive: > 100 µM.
Under `CC1=NC(=Cc2ccccc2O)C(=O)N1n1c(-c2ccccc2)nc2ccccc2c1=O` stands inactive: 46.5 µM.
The value for `COC(=O)C1=C(\c2ccccc2)c2ccccc2C(=O)N(C2CCCCC2)/C=C\1` was inactive: 31.4 µM; that for `CCN1C(=O)C(=C/C=C/c2ccc([N+](=O)[O-])cc2)C(=O)N(CC)C1=S` was inactive: > 100 µM; that for `Cc1cc2[nH]c3c(C#N)c(-c4ccccc4)c(/C=N/c4ccc(Cl)cc4)c(=O)n3c2cc1C` was inactive: > 100 µM.
Take `O=C(CN1CCCCC1)c1ccc2[nH]c(=O)oc2c1`: the GI50 was inactive: > 100 µM.
The value for `CN(C)CCNC(=O)c1cc([N+](=O)[O-])cc2ccc(-c3ccccc3)nc12` was inactive: 5.18 µM; that for `COC12COC(=O)C1C(c1ccc3c(c1)OCO3)c1cc3c(cc1O2)OCO3` (centres undefined) was inactive: 38 µM.
Consider `COc1cc(C(C)O)c[n+](CCC2CNc3ccccc32)c1` (centres undefined), for which the GI50 is inactive: > 100 µM.
Regarding `N#Cc1c(C#N)c(-c2ccccc2)n(Cc2ccccc2)c1N`, the GI50 was inactive: > 100 µM.
Under `O=P1(NCCCl)OCCC(OO)N1CCCl` (centres undefined) stands inactive: 62.1 µM; under `CC(=O)NC(Cc1ccsc1)C(=O)O` (centres undefined), inactive: > 100 µM; under `COc1cccc(N(CN2C(=O)CCC2C(=O)O)C(C)=O)c1` (centres undefined), inactive: > 100 µM.
The value for `N#Cc1cc2c(cc1C#N)/C(=N\c1cccc(N)n1)N/C2=N\c1cccc(N)n1` was inactive: 43.1 µM; that for `O=C(O)C1=CNC(C(=O)O)=NN1` was inactive: > 100 µM; that for `Nc1ccc(/N=N/c2ccc(/C=C/c3ccc(/N=N/c4ccc(N)c5ccc(S(=O)(=O)O)cc45)cc3S(=O)(=O)O)c(S(=O)(=O)O)c2)c2cc(S(=O)(=O)O)ccc12` was inactive: > 100 µM.
The value for `O=S(=O)(O)c1ccc([Se][Se]c2ccc(S(=O)(=O)O)cc2)cc1` was inactive: > 100 µM.
Regarding `CCN(CC)COC(=S)S`, the GI50 was inactive: > 100 µM.
The value for `C=C1CCC23CC(CC[C@@H]2[C@@]12C[C@@H](c1ccoc1)OC2=O)OC3=O` (some centres undefined) was inactive: > 100 µM; that for `Nc1ncnc2c1ncn2COC/C=C/I` was inactive: > 100 µM; that for `COC1C(O)C(C)OC(OC2C(Oc3cccc4c(O)c5c(=O)oc6ccc(C)c7c(=O)oc(c34)c5c67)OC(C)C(O)C2O)C1O` (centres undefined) was inactive: 2.37 µM.
Turning to `O=C1C(Cl)=C(N2C(=O)CCC2=O)C(=O)c2ccccc21`, the GI50 is inactive: > 100 µM.
The value for `O=C(c1cccs1)N1CCCN(C(=O)c2cccs2)C1=S` was inactive: > 100 µM.
Under `CNC(=O)/C(=C/c1ccc(OC)cc1)c1cc(OC)c(OC)c(OC)c1` stands inactive: 3.23 µM.
